In publication PMC4336329 (PLoS ONE, 2015):
The campaign covered roughly 310,000 compounds. About 2,200 (0.71%) showed an effect of 50% or more. The effect is printed as a negative number. This is one part of the list.

Molecular target: human ether-à-go-go-related gene (hERG) potassium channel (human, UniProt Q12809)
Experiment: primary screen, population patch clamp on CHO cells stably expressing hERG

Sequence of human ether-à-go-go-related gene (hERG) potassium channel (Q12809 whole entry, looked up): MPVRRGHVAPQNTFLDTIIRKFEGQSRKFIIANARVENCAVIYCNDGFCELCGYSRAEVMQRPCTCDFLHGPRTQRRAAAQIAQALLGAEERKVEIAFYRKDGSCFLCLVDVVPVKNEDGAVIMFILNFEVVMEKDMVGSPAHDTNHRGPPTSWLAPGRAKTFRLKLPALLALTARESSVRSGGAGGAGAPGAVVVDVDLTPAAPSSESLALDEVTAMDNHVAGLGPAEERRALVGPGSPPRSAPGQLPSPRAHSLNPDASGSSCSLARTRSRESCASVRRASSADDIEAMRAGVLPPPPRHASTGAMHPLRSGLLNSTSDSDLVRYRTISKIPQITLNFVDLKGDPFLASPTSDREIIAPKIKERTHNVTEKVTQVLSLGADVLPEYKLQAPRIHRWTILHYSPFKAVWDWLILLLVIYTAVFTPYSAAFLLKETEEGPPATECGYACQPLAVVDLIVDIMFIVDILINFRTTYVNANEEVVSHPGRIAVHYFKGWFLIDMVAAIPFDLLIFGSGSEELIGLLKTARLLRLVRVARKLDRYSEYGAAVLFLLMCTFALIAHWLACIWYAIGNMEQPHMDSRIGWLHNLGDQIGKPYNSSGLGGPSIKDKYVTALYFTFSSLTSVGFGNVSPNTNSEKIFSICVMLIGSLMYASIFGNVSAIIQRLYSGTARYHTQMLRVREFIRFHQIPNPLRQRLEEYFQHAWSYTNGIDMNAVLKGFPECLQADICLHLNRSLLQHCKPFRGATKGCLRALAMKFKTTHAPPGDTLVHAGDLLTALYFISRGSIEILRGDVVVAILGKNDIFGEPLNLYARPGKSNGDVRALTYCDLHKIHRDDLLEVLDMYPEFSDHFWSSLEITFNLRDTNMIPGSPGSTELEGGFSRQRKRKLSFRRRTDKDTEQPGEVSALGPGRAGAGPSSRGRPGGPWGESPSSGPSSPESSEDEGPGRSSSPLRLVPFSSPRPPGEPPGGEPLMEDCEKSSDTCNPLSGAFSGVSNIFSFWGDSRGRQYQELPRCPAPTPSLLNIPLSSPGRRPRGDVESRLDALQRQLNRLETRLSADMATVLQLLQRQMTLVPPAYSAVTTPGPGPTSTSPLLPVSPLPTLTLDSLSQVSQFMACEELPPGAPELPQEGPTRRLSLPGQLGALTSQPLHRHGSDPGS

Point of comparison: `COc1ccc(C)cc1NC(=O)C/C(C)=N/NC(=O)Cc1cccc2ccccc12`, “hERG current change (%, negative = inhibition) at 1uM” value 1.45%. Against it:
- Cc1cc(C)n(CC(O)COc2ccc(C(C)C)c(C)c2)n1 (stereo not shown) — higher, 8.97%
- COc1ccc2c(c1OC)C(=O)N1N=C(c3ccc(Br)cc3)CC21 (stereo not shown) — higher, 5.49%
- Cc1ccc(NC(=O)Cn2nnc(C(=O)NCc3cccs3)c2N)cc1 — higher, 3.75%
- COc1cccc2cc(-c3cc(=O)oc4ccc(OCC(C)=O)cc34)oc12 — higher, 14.6%
- COc1ccc(OC)c(/C=C/C(=O)OCC(=O)c2c(N)n(C)c(=O)n(C)c2=O)c1 — lower, 1.23%
- CC(=O)c1c(C)[nH]c(C(=O)N2CCc3ccccc3C2)c1C — higher, 4.27%
- Cc1ccc(OCCCc2c(C)n[nH]c2C)cc1 — higher, 13.2%
- OCC1(Cc2ccccc2C(F)(F)F)CCN(Cc2ccncc2)CC1 — higher, 10.1%
- CCCCC(=O)Nc1ccc(C)c(S(=O)(=O)N2CCCCCC2)c1 — higher, 7.77%
- O=C(NCc1ccc(Cl)cc1)C(=O)NCC1OCCN1S(=O)(=O)c1cccs1 (stereo not shown) — higher, 4.68%
- CCOC(=O)C1(CC2CCCCO2)CCN(C(=O)Nc2ccccc2SC)CC1 (stereo not shown) — higher, 10.6%
- NC(=O)CSc1nnnn1-c1cccc(Cl)c1 — higher, 17.5%
- CCCCC(=O)N(Cc1ccc(-c2ccccc2-c2nn[nH]n2)cc1)[C@H](C(=O)O)C(C)C — higher, 17.9%
- N#Cc1ccc(NC(=O)Cn2cnc(S(=O)(=O)N3CCCCC3)c2)cc1 — higher, 17.8%
- C=CCNc1nc(Cl)nc(Nc2ccc([N+](=O)[O-])cc2)n1 — higher, 5.98%
- COc1ccc([N+](=O)[O-])c(OC)c1C(=O)NC(=O)Nc1c(C)cccc1C — higher, 9.29%
- O=C(CNC(=O)c1ccccc1F)N/N=C\C=C\c1ccccc1 — higher, 7.95%
- Cc1ccc(NC(=O)O/N=C/c2c(C)nn(C(C)(C)C)c2C)cc1Cl — higher, 3.27%
- CC(C)(C)OC(=O)NOCC(=O)N(Cc1ccccc1)CC(O)COc1ccccc1 (stereo not shown) — higher, 12.7%
- CCOc1ccccc1NS(=O)(=O)c1ccc2[nH]c(=O)[nH]c2c1 — higher, 15.7%
- COc1cccc2cc(C(=O)C3=C(O)C(=O)N(CCN4CCOCC4)C3c3cccc(Cl)c3)oc12 (stereo not shown) — higher, 14.6%
- C=CCSc1nnc2c(n1)-c1cccc3cccc-2c13 — higher, 10.4%
- O=C(N/N=C/c1c[nH]c2ccccc12)c1ccccc1 — higher, 16.2%
- Cc1coc2c(C)c3oc(=O)cc(-c4ccccc4)c3cc12 — higher, 12.1%
- CCOc1ccc(N2C(=O)CC(Sc3nc(CC(C)C)ccc3C#N)C2=O)cc1 (stereo not shown) — higher, 14.5%
- CCOc1ccc(NC(=O)CSc2nc3ccsc3c(=O)n2CCC(=O)O)cc1 — higher, 1.5%
- COc1ccc(OC)c(CC(=O)O)c1 — higher, 11.2%
- COc1ccc(-n2c(SCc3ccc([N+](=O)[O-])cc3)nnc2-c2ccc(C)cc2)cc1 — higher, 21.1%
- CCN(CC(=O)NCCc1ccccc1)S(=O)(=O)c1ccc(Br)cc1 — higher, 5.79%
- O=C(NCCc1ccccc1)c1ccccc1NC(=O)C1CCCCC1C(=O)O (stereo not shown) — higher, 6.28%
- C=CCN1C(=O)C(C)(C)Nc2ccccc21 — higher, 1.71%
- O=C1CCC(=O)N1CC1CC2CCC1C2 (stereo not shown) — lower, -0.0728%
- COc1ccc(S(=O)(=O)NCC(c2ccco2)N2CCc3ccccc32)cc1 (stereo not shown) — higher, 8.58%
- COc1cccc(NC(=O)CN(C)C(=O)CCNS(=O)(=O)c2ccc(C)cc2)c1 — higher, 4.92%
- COCC1=C(C(=O)OC)C(c2cccs2)n2ncnc2N1 (stereo not shown) — higher, 13.3%
- COc1cc(NC(=O)C2CCCN2S(=O)(=O)c2ccc3c(c2)CC(C)N3C(C)=O)cc(OC)c1 (stereo not shown) — lower, -3.09%
- C=CCN(c1ccccc1Cl)S(=O)(=O)c1cccc(C(=O)NCCc2ccc(OC)cc2)c1 — lower, 0.98%
- CC(C)(CNC(=O)c1ccc(NS(=O)(=O)c2ccc(F)cc2)cc1)N1CCOCC1 — higher, 3.14%
- CCOC(=O)NC(=O)CN1C(=O)NC2(CCc3ccccc32)C1=O (stereo not shown) — higher, 13.6%
- CC(C)(C)C(=O)COC(=O)c1cc(-c2ccncc2)nc2ccccc12 — higher, 6.46%
- COc1ccc(CNC2CCN(Cc3ccccc3)CC2)cc1 — lower, -3.31%
- CCOC(=O)C1=C(C)NC2=C(C(=O)C(C(=O)OCC)C(c3ccc(OC)cc3)C2)C1c1ccccn1 (stereo not shown) — higher, 11.4%
- O=C(c1ccc(Oc2ccc([N+](=O)[O-])cc2Cl)cc1)N1CCCC1 — lower, -3.03%
- CCOc1cc(/C=N/NC(=O)CN2CCCCC2)ccc1O — higher, 1.96%
- Cc1noc(NS(=O)(=O)c2ccc(NC(=O)CCN3C(=O)c4ccccc4C3=O)cc2)c1C — higher, 5.69%
- Cc1nc2ccc(NC(=O)N3CCC(c4ccccc4)C3)cc2nc1C (stereo not shown) — higher, 4.24%
- O=C(NCc1nnc2c(C(F)(F)F)cc(Cl)cn12)c1cccs1 — higher, 5.82%
- COC(=O)[C@]1(C)CCC[C@@]2(C)C3CC[C@@]4(C)C[C@]3(CCC21)CC(=O)N4Cc1ccc(OC)cc1 (stereo partly shown) — higher, 11.9%
- O=C(O)C1C2C=CC(C2)C1C(=O)NC1CCS(=O)(=O)C1 (stereo not shown) — higher, 13.2%
- Cc1ccc(O)c(C(=O)c2cnn(-c3ccccc3)c2)c1 — higher, 15%
- Cc1ccccc1Nc1nnc(SCC(=O)NC(=O)Nc2ccc3c(c2)OCCO3)s1 — higher, 2.56%
- CCC(=O)Nc1nc2c(OC)ccc(C)c2s1 — higher, 9.19%
- COc1ccc(C(=O)C2CCCN(Cc3ccc(NC(C)=O)cc3)C2)cc1OC (stereo not shown) — higher, 8.1%
- COc1ccc(/C=N/NC(=O)c2ccc(Cn3cc([N+](=O)[O-])cn3)o2)c(OC)c1C — higher, 16%
